Measurements taken from PubChem BioAssay AID588579 (National Center for Advancing Translational Sciences (NCATS), 2011).
In all, about 400,000 compounds went through this assay and about 2,200 (0.55%) were called active. Roughly 1% stayed inconclusive and do not appear here. Calls follow the shape of the dose curve; as a rule, active = well fitted inhibition curve with a large enough effect; inconclusive = small, poorly fitted or top-dose-only effect, or another doubt; inactive = no such curve, though single readings can be large or run the other way. This is a selection; strong and weak results do not stand in their true shares. A structure can be active in one record and inactive in another.

Each compound was assayed against DNA polymerase kappa (Homo sapiens) (UniProt Q9UBT6) (assay: qHTS for Inhibitors of Polymerase Kappa). Settings: purified Pol kappa, fluorescent DNA synthesis assay, 10 min; series mostly up to 107 µM; activity, negative = inhibition: at the top concentration.
Chain of UniProt Q9UBT6 (Q9UBT6 whole entry, looked up): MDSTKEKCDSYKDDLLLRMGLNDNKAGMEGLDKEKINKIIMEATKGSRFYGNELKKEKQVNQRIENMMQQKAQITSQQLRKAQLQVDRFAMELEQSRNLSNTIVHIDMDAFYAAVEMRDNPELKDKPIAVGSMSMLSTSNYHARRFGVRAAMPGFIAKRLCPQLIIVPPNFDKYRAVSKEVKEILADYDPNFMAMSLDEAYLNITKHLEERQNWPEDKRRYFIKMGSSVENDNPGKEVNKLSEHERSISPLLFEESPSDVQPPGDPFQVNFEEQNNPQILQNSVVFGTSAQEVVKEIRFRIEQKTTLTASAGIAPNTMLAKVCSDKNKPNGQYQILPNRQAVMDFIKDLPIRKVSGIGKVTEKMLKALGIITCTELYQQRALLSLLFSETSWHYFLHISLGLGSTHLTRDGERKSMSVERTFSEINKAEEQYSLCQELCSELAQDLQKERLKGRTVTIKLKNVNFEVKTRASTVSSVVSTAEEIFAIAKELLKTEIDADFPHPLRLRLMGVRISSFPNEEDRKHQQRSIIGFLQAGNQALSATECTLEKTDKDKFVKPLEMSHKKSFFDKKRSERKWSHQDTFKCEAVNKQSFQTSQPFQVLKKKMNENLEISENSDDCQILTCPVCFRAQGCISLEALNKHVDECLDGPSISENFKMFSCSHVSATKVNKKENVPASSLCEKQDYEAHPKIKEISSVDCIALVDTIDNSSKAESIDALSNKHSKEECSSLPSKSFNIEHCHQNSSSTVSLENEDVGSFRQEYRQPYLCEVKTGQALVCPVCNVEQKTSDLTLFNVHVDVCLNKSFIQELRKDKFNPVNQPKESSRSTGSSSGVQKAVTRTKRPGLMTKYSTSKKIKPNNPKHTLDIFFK
Summary of the method: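 Kinetic fluorescence readout at 0 and 10 min followed reaction start with substrate at 50 nM final. Beforehand, enzyme (10 nM Pol kappa) stood 15 min with compound at room temperature; buffer-only wells were negative controls.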
% is scaled to controls: 0 for no effect and ±100 for the full control effect; potency is read from the fitted curve at half-maximal effect.

Row | SMILES | Potency | activity, negative = inhibition
1 | COc1cccc2oc(-c3ccccc3)cc(=O)c12 | inactive | –
2 | COc1cc(NCc2ccc3nc(N)nc(N)c3c2C)cc(OC)c1OC | – | inactive: -8.38% [at 19.4 µM]
3 | COc1ccc(-c2ccc([C@H]3[C@H]4C=CC[C@@H](C)[C@@H]4C(=O)N3Cc3ccccc3)c(F)c2)cc1C | – | inactive: -2.52%
4 | C1=Cc2ccccc2/C1=C\c1cc[cH-]c1.[Fe+2].c1cc[cH-]c1 | active: 1.12 µM | –
5 | C[C@](N)(Cc1ccc(O)c(O)c1)C(=O)O | – | inactive: -9.93% [at 19.4 µM]
6 | COc1cc(O)c(C(CC(=O)N2CCCC2)c2cc(OC)c(OC)c(OC)c2)c(OC)c1 (centres undefined) | – | inactive: 10.2%
7 | CN(C)[C@@H]1C(=O)C(C(N)=O)=C(O)[C@]2(O)C(=O)C3=C(O)c4c(O)ccc(Cl)c4[C@H](O)[C@H]3C[C@@H]12 | – | inactive: -2.8% [at 12 µM]
8 | CSc1cc2c(cc1C(F)(F)F)N(C(=O)Nc1cccnc1)CC2 | inactive | –
9 | CCCCN(C(=O)c1cc2c(s1)CCC2)c1c(N)n(CC(C)C)c(=O)[nH]c1=O | active: 79.4 µM | –
10 | CC(=O)Oc1ccccc1C(=O)O | inactive | –
11 | CCOc1cc(/C=N/NC(=O)c2ccc(-c3csc(Nc4ccc(C)cc4)n3)cc2)ccc1OCC(=O)O | active: 31.6 µM | –
12 | CCOC(=O)[C@@H]1[C@H]2COc3cc(OC)ccc3[C@@H]2N2C(=O)N(c3cccc(F)c3)C(=O)[C@]12C | – | inactive: -4.65%
13 | O=C(Nc1cccc(Cl)c1)OCC#CCCl | active: 26.7 µM | –
14 | O=C(O)c1cc(=O)c2cc(Cl)ccc2[nH]1 | – | inactive: 17.8% [at 60.1 µM]
15 | CC1=C(/C=C/C(C)=C/C=C/C(C)=C/C(=O)O)C(C)(C)CCC1 | inactive | –
16 | O=C1NC(=Nc2ccccc2)S/C1=C\C=C\c1ccco1 | active: 20 µM | –
17 | CC(OC(=O)/C(C#N)=C/c1ccc(N(C)C)cc1)C(=O)N(C)c1ccccc1 (centres undefined) | active: 79.4 µM | –
18 | COc1ccc(S(=O)(=O)/N=C2/NC(=O)/C(=C/c3ccco3)S2)cc1 | – | inactive: -10.5%
19 | CCCCCCCCCCCCCCCC(O)C(N)CO (centres undefined) | – | inactive: 9.66%
20 | COC(=O)[C@@H]1OC(c2ccccc2)O[C@H]1C(=O)OC | – | inactive: 19.4% [at 60.1 µM]
21 | Cc1cc(C)c2c(c1)C1C=CCC1C(C(=O)O)N2 (centres undefined) | active: 28.2 µM | –
22 | COc1cc(OC)c2c(-c3cccc(-c4cccc(C)c4)c3)cc(=O)oc2c1 | – | inactive: -6.9%
23 | CCCCCC1=C(C(=O)OC)C(C(=O)OCC)N(S(=O)(=O)C(F)(F)F)c2ccccc21 (centres undefined) | – | inactive: -0.994%
24 | Cc1cccc(NC(=O)CC2Nc3cccc4cccc(c34)NC2=O)c1 (centres undefined) | – | inactive: -24.7%
25 | Cc1nc2ccn(Cc3cccnc3)c(=O)c2cc1C(=O)N1CCN(c2ccccc2F)CC1 | – | inactive: 28.1%

Row | SMILES | Potency | activity, negative = inhibition
26 | O=C1OCCN1C(=O)[C@H]1[C@H](c2ccc(F)cc2)C(c2cccc(Cl)c2)=NN1c1ccccc1 | – | inactive: 0.846%
27 | COc1ccc(NC(=O)/C=C/c2ccc(Br)o2)cn1 | active: 79.4 µM | –
28 | O=C(N/N=C/c1ccc(Sc2ccccn2)o1)c1cc2ccccc2cc1O | active: 28.2 µM | –
29 | CC1(C)S[C@@H]2[C@H](NC(=O)[C@@H](N)c3ccc(O)cc3)C(=O)N2[C@H]1C(=O)O | – | inactive: -4.4% [at 12 µM]
30 | C[C@]12CC[C@@H]3c4ccc(O)cc4CC[C@H]3[C@@H]1CC[C@@H]2O | inactive | –
31 | O=C(OCCC12CC3CC(CC(C3)C1)C2)c1ccc(NCc2cc(O)ccc2O)cc1 | active: 79.4 µM | –
32 | O=C(O)c1cccc(-n2cccc2/C=C/[N+](=O)[O-])c1 | active: 14.1 µM | –
33 | COc1cc(C2Oc3cc(C4Oc5cc(O)cc(O)c5C(=O)C4O)ccc3OC2CO)ccc1O (centres undefined) | inactive | –
34 | O=c1cc2oc3cc(O)c(O)cc3c(-c3ccccc3O)c-2cc1O | active: 4.47 µM | –
35 | Cc1ccc(C)c(N2CCN(S(=O)(=O)c3csc(C(N)=O)c3)CC2)c1 | – | inactive: -6.74%
36 | OC[C@@H](O)C(O)[C@@H](O)CO (some centres undefined) | – | inactive: 14.8% [at 60.1 µM]
37 | COc1ccc(C(=O)N/C(=C/c2cccc3ccccc23)C(=O)NCCc2c[nH]c3ccccc23)cc1OC | – | inactive: -20.7%
38 | COc1ccc([C@H]2OCC3C2CO[C@@H]3c2ccc(OC)c(OC)c2)cc1OC (some centres undefined) | – | inactive: 15.4% [at 60.1 µM]
39 | O=[N+]([O-])c1ccc(-c2nc(-c3ccc(F)cc3)c(-c3ccncc3)[nH]2)cc1 | – | inactive: -0.545% [at 60.1 µM]
40 | O=S1(=O)CCOC[C@H](c2ccccc2)N1Cc1cccc(Cl)c1 | – | inactive: -2.79%
41 | CC(=O)[C@@]1(O)CC[C@H]2[C@H]3C[C@@H](C)C4=CC(=O)C=C[C@]4(C)[C@@]3(F)[C@@H](O)C[C@]21C | – | inactive: -4.29% [at 12 µM]
42 | O=C(O)c1cccc(-n2cccc2/C=N/O)c1 | active: 35.5 µM | –
43 | CC(C)C[C@H](NC(=O)[C@H](CCCCN)NC(=O)[C@H](CCC(N)=O)NC(=O)[C@H](Cc1cnc[nH]1)NC(=O)[C@H](Cc1cnc[nH]1)NC(=O)[C@@H](N)C(C)C)C(=O)N[C@H](C(=O)N[C@@H](Cc1ccccc1)C(=O)N[C@@H](Cc1ccccc1)C(=O)N[C@@H](C)C(=O)N[C@@H](CCC(=O)O)C(=O)N[C@@H](CC(=O)O)C(=O)N[C@H](C(=O)NCC(=O)N[C@@H](CO)C(=O)N[C@@H](CC(N)=O)C(=O)N[C@@H](CCCCN)C(=O)O)C(C)C)C(C)C | – | inactive: 19.2% [at 60.1 µM]
44 | O=C(OC[C@H]1O[C@@H](OC(=O)c2cc(O)c(O)c(OC(=O)c3cc(O)c(O)c(O)c3)c2)[C@H](OC(=O)c2cc(O)c(O)c(OC(=O)c3cc(O)c(O)c(O)c3)c2)[C@@H](OC(=O)c2cc(O)c(O)c(OC(=O)c3cc(O)c(O)c(O)c3)c2)[C@@H]1OC(=O)c1cc(O)c(O)c(OC(=O)c2cc(O)c(O)c(O)c2)c1)c1cc(O)c(O)c(OC(=O)c2cc(O)c(O)c(O)c2)c1 | – | inactive: -99.1%
45 | CCCCC(=O)O[C@H]1CC[C@H]2[C@@H]3CCc4cc(O)ccc4[C@H]3CC[C@]12C | – | inactive: 0%
46 | OCCOCCN1CCN([C@@H](c2ccccc2)c2ccc(Cl)cc2)CC1 | – | inactive: 0.0815% [at 12 µM]
47 | CC1(C)S[C@@H]2[C@H](NC(=O)[C@H](N)c3ccc(O)cc3)C(=O)N2[C@H]1C(=O)O | active: 50.1 µM | –
48 | O=c1cc(-c2ccccc2O)oc2c(O)c(O)ccc12 | active: 0.891 µM | –
49 | NC(=O)[C@H]1CCCN1C(=O)[C@H](Cc1cnc[nH]1)NC(=O)[C@@H]1CCC(=O)N1 | – | inactive: -15.1% [at 12 µM]
